Test results from the supplement of paper PMC11876631.
Positions count from the first letter of the chain named. In names and notes the source's numbering stands. ± gives the standard deviation of the averaged measurements. Laboratory Escherichia coli strains with one amino-acid change in an essential protein, pooled on minimal glucose agar with carbenicillin or gentamicin at twice the control MIC (plus kanamycin and chloramphenicol for the plasmids), 48 h. Fold change of barcode share against drug-free plates; higher = less susceptible. Active = above 20 in both replicates (the paper's putatively resistant). '<' = one read or none on drug, '>' = one read or none on a drug-free plate. Shares are relative, so most strains fall below 1 when a few take over. Listed are strains with at least 15 reads on both drug-free plates, and hits; most hits rest on fewer reference reads. Replicate rank correlation about 0.5. Edits are read from barcodes.

B1: murG V121P (protein)
chain: MSGQGKRLMVMAGGTGGHVFPGLAVAHHLMAQGWQVRWLGTADRMEADLVPKHGIEIDFIRISGLRGKGIKALIAAPLRIFNAWRQARAIMKAYKPDVVLGMGGYVSGPGGLAAWSLGIPPVLHEQNGIAGLTNKWLAKIATKVMQAFPGAFPNAEVVGNPVRTDVLALPLPQQRLAGREGPVRVLVVGGSQGARILNQTMPQVAAKLGDSVTIWHQSGKGSQQSVEQAYAEAGQPQHKVTEFIDDMAAAYAWADVVVCRSGALTVSEIAAAGLPALFVPFQHKDRQQYWNALPLEKAGAAKIIEQPQLSVDAVANTLAGWSRETLLTMAERARAASIPDATERVANEVSRVARA
B2: murI V90A (protein)
chain: MATKLQDGNTPCLAATPSEPRPTVLVFDSGVGGLSVYDEIRHLLPDLHYIYAFDNVAFPYGEKSEAFIVERVVAIVTAVQERYPLALAVAACNTASTVSLPALREKFDFPVVGVVPAIKPAARLTANGIVGLLATRGTVKRSYTHELIARFANECQIEMLGSAEMVELAEAKLHGEDVSLDALKRILRPWLRMKEPPDTVVLGCTHFPLLQEELLQVLPEGTRLVDSGAAIARRTAWLLEHEAPDAKSADANIAFCMAMTPGAEQLLPVLQRYGFETLEKLAVLG
B3: murI V90D (protein)
chain: B2 chain with A90D
B4: murI V76A (protein)
chain: B2 chain with V76A, A90V
B5: murI V201A (protein)
chain: B2 chain with A90V, V201A
B6: murI L25A (protein)
chain: B2 chain with L25A, A90V
B7: murI L132A (protein)
chain: B2 chain with A90V, L132A
B8: nadA V234W (protein)
chain: MSVMFDPDTAIYPFPPKPTPLSIDEKAYYREKIKRLLKERNAVMVAHYYTDPEIQQLAEETGGCISDSLEMARFGAKHPASTLLVAGVRFMGETAKILSPEKTILMPTLQAECSLDLGCPVEEFNAFCDAHPDRTVVVYANTSAAVKARADWVVTSSIAVELIDHLDSLGEKIIWAPDKHLGRYVQKQTGGDILCWQGACIVHDEFKTQALTRLQEEYPDAAILVHPESPQAIWDMADAVGSTSQLIAAAKTLPHQRLIVATDRGIFYKMQQAVPDKELLEAPTAGEGATCRSCAHCPWMAMNGLQAIAEALEQEGSNHEVHVDERLRERALVPLNRMLDFAATLRG
B9: nadD L26Q (protein)
chain: MKSLQALFGGTFDPVHYGHLKPVETQANLIGLTRVTIIPNNVPPHRPQPEANSVQRKHMLELAIADKPLFTLDERELKRNAPSYTAQTLKEWRQEQGPDVPLAFIIGQDSLLTFPTWYEYETILDNAHLIVCRRPGYPLEMAQPQYQQWLEDHLTHNPEDLHLQPAGKIYLAETPWFNISATIIRERLQNGESCEDLLPEPVLTYINQQGLYR
B10: nadD L26D (protein)
chain: B9 chain with Q26D
B11: nadE I79A (protein)
chain: MTLQQQIIKALGAKPQINAEEEIRRSVDFLKSYLQTYPFIKSLVLGISGGQDSTLAGKLCQMAINELRLETGNESLQFAAVRLPYGVQADEQDCQDAIAFIQPDRVLTVNIKGAVLASEQALREAGIELSDFVRGNEKARERMKAQYSIAGMTSGVVVGTDHAAEAITGFFTKYGDGGTDINPLYRLNKRQGKQLLAALACPEHLYKKAPTADLEDDRPSLPDEVALGVTYDNIDDYLEGKNVPQQVARTIENWYLKTEHKRRPPITVFDDFWKK
B12: nadE F78A (protein)
chain: B11 chain with F78A, A79I
B13: nadE F78W (protein)
chain: B11 chain with F78W, A79I

Biological target: Escherichia coli (laboratory strain)
Test: barcode share on antibiotic plates over drug-free plates; higher = less susceptible
Conditions: antibiotic: gentamicin; 2× MIC (MIC 0.45 µg/mL)
Experimental: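 A pool of E. coli strains, each edited to carry one amino-acid change in an essential protein, was grown for 48 h on minimal glucose agar with or without antibiotic; strain barcodes were sequenced; mean of two replicates.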

Row | Protein | fold change of barcode share
1 | B1 | < 0.00306
2 | B2 | 0.00585 ± 0.0026
3 | B3 | 0.00356 ± 0.0002
4 | B4 | < 0.0182
5 | B5 | < 0.0181
6 | B6 | < 0.0119
7 | B7 | < 0.0186
8 | B8 | 0.0948 ± 0.099
9 | B9 | < 0.0198
10 | B10 | < 0.0152
11 | B11 | < 0.0152
12 | B12 | < 0.0143
13 | B13 | < 0.0206
